The results in this text go back to article PMC9911399, “Two distinct binding modes provide the RNA-binding protein RbFox with extraordinary sequence specificity”.

Where a chain is given by its changes, count along the chain named. This is one part of the list.

To fix the notation:
T1: RBFOX1 RRM (Homo sapiens, UniProt Q9NWB1 109-208)
T1 sequence: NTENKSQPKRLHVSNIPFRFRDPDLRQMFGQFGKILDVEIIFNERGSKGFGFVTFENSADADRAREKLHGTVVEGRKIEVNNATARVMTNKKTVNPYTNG

B1: AUAGAAG (DNA:RNA)
RNA: GGGAGACCGGAAUUCAGAUUGUCCAUAGAAGUUAAAUCCCGUCGUAGCCACCA
DNA 1: CAATCTGAATTCCGGTCTCCC
DNA 2: TGGTGGCTACGACGGGATT
B2: CAGCUGA (DNA:RNA)
RNA: GGGAGACCGGAAUUCAGAUUGUCCCAGCUGAUUAAAUCCCGUCGUAGCCACCA
DNA 1: CAATCTGAATTCCGGTCTCCC
DNA 2: TGGTGGCTACGACGGGATT
B3: CUUCAUC (DNA:RNA)
RNA: B1 RNA with A25C, A27U, G28C, A30U, G31C
DNA 1: CAATCTGAATTCCGGTCTCCC
DNA 2: TGGTGGCTACGACGGGATT
B4: CCUUGUC (DNA:RNA)
RNA: B2 RNA with A26C, G27U, C28U, U29G, G30U, A31C
DNA 1: CAATCTGAATTCCGGTCTCCC
DNA 2: TGGTGGCTACGACGGGATT
B5: CCCAGAU (DNA:RNA)
RNA: B1 RNA with A25C, U26C, A27C, G28A, A29G, G31U
DNA 1: CAATCTGAATTCCGGTCTCCC
DNA 2: TGGTGGCTACGACGGGATT
B6: ACGGUUA (DNA:RNA)
RNA: B2 RNA with C25A, A26C, C28G, G30U
DNA 1: CAATCTGAATTCCGGTCTCCC
DNA 2: TGGTGGCTACGACGGGATT
B7: AUUCACC (DNA:RNA)
RNA: B1 RNA with A27U, G28C, A30C, G31C
DNA 1: CAATCTGAATTCCGGTCTCCC
DNA 2: TGGTGGCTACGACGGGATT
B8: ACGACUU (DNA:RNA)
RNA: B1 RNA with U26C, A27G, G28A, A29C, A30U, G31U
DNA 1: CAATCTGAATTCCGGTCTCCC
DNA 2: TGGTGGCTACGACGGGATT
B9: GCCGCCG (DNA:RNA)
RNA: B1 RNA with A25G, U26C, A27C, A29C, A30C
DNA 1: CAATCTGAATTCCGGTCTCCC
DNA 2: TGGTGGCTACGACGGGATT

This test has as its target T1, RBFOX1 RRM. The experiment in a line: EMSA; HiTS-Eq, 1 nM pool, 10 min; buffer printed only for the single-RNA assays: 10 mM Tris pH 7.5, 150 mM NaCl, 3.4 mM EDTA, 0.001% NP-40, 30 C. As to conditions: tags: His6 N-terminal (pET28a); label: 5' 32P. The method in brief:
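Relative association constants, normalised to the cognate motif, were derived by comparing read counts of each RNA species with those of the control reaction. The RNA sequenced was the free fraction, separated by 8% native PAGE after a 10 min equilibration in 50 µL of 1 nM 5′-radiolabelled RNA (7 randomized nucleotides) with increasing concentrations of purified wild-type or mutant RbFox RRM.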
For orientation: In EMSA bound probe runs differently from free probe, usually more slowly.
Regarding B1, the binding signal was 0.00586 KA relative to UGCAUGU.

In the case of B2, the binding signal is 0.01 KA relative to UGCAUGU.

Regarding B3, the binding signal is 0.00151 KA relative to UGCAUGU.

On to B4, for which the binding signal is 0.00915 KA relative to UGCAUGU.

For B5, the binding signal is 0.00621 KA relative to UGCAUGU.

Turning to B6, the binding signal was 0.00606 KA relative to UGCAUGU.

Take B7: the binding signal was 0.00129 KA relative to UGCAUGU.

B8: the binding signal is 0.00346 KA relative to UGCAUGU.

As to B9, the binding signal was 0.0158 KA relative to UGCAUGU.
